{"source": "the BET-seq Pho4 binding data (Le et al. 2018)", "note": "The list shows a part of the results. These are noisy estimates, calculated here from bound and input reads.", "data": [{"target": "T1, Pho4 (S. cerevisiae) (UniProt P07270)", "T1 sequence": "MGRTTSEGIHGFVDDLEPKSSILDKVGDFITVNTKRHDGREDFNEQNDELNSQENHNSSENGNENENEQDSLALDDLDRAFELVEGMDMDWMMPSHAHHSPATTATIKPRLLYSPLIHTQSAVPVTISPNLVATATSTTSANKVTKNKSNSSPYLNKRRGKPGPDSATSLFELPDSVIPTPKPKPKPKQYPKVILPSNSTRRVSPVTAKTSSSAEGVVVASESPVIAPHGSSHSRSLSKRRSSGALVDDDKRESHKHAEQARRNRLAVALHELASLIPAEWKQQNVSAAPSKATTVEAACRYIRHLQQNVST", "experiment": "relative binding free energy (BET-seq); higher = weaker binding", "conditions": "reference: library average", "units": {"relative binding free energy": "kcal/mol"}, "values": [{"sequence": "GATAGCACGTGATGGC", "relative binding free energy": 0.14}, {"sequence": "CGGTACACGTGTAGTT", "relative binding free energy": 0.05}, {"sequence": "TTTCGCACGTGTTGCA", "relative binding free energy": 0.03}, {"sequence": "TGTCACACGTGGTAGG", "relative binding free energy": -0.12}, {"sequence": "TCGAACACGTGGTTGG", "relative binding free energy": 0.06}, {"sequence": "CTATTCACGTGGAATT", "relative binding free energy": 0.33}, {"sequence": "GTTAGCACGTGGTCAG", "relative binding free energy": -0.13}, {"sequence": "CTTGGCACGTGGCACG", "relative binding free energy": -0.04}, {"sequence": "GGATACACGTGTATAT", "relative binding free energy": 0.05}, {"sequence": "AAATGCACGTGGTGAG", "relative binding free energy": -0.02}, {"sequence": "TGCGGCACGTGGGTTT", "relative binding free energy": -0.19}, {"sequence": "GGTGTCACGTGCGGCA", "relative binding free energy": -0.04}, {"sequence": "ATTATCACGTGAATAT", "relative binding free energy": 0.26}, {"sequence": "AGGTCCACGTGTTTTA", "relative binding free energy": -0.01}, {"sequence": "TGGGGCACGTGCTGAG", "relative binding free energy": -0.25}, {"sequence": "TGTTGCACGTGAGAGG", "relative binding free energy": 0.24}, {"sequence": "TTTCTCACGTGCGTTA", "relative binding free energy": 0.25}, {"sequence": "GACGGCACGTGGTGTA", "relative binding free energy": -0.12}, {"sequence": "ATAGGCACGTGGGCCT", "relative binding free energy": -0.22}, {"sequence": "AGTTTCACGTGAGTGT", "relative binding free energy": 0.37}, {"sequence": "AGTGTCACGTGATAGG", "relative binding free energy": 0.21}, {"sequence": "AGGTGCACGTGGTAGG", "relative binding free energy": -0.09}, {"sequence": "TCAGTCACGTGAGGCT", "relative binding free energy": 0.23}, {"sequence": "GGGATCACGTGGTAAT", "relative binding free energy": 0.1}, {"sequence": "ATGAGCACGTGATGGA", "relative binding free energy": -0.03}, {"sequence": "ACGAGCACGTGGGTAG", "relative binding free energy": -0.2}, {"sequence": "TCGTGCACGTGGTAAT", "relative binding free energy": -0.15}, {"sequence": "AGGTTCACGTGCGAGT", "relative binding free energy": 0.23}, {"sequence": "TTTTACACGTGGAAGA", "relative binding free energy": 0.27}, {"sequence": "GTGGACACGTGGCGTA", "relative binding free energy": 0.01}, {"sequence": "GTAGTCACGTGGGACA", "relative binding free energy": 0.03}, {"sequence": "ATGGGCACGTGTGTGG", "relative binding free energy": -0.01}, {"sequence": "GCGCTCACGTGATGGG", "relative binding free energy": 0.37}, {"sequence": "GATAGCACGTGAGGAG", "relative binding free energy": 0.36}, {"sequence": "GATAGCACGTGGTGGC", "relative binding free energy": -0.09}, {"sequence": "AGGTGCACGTGATTAG", "relative binding free energy": 0.02}, {"sequence": "TGTCGCACGTGTGATT", "relative binding free energy": -0.02}, {"sequence": "GTTAGCACGTGGCTTA", "relative binding free energy": -0.17}, {"sequence": "CGTGGCACGTGTGTAA", "relative binding free energy": -0.03}, {"sequence": "AGTTGCACGTGTCTTG", "relative binding free energy": 0.16}, {"sequence": "GGTTTCACGTGAGCTA", "relative binding free energy": 0.42}, {"sequence": "CCGTGCACGTGCGTGG", "relative binding free energy": 0.01}, {"sequence": "CAGTGCACGTGCTGTG", "relative binding free energy": -0.1}, {"sequence": "GAGCGCACGTGTTTGG", "relative binding free energy": -0.05}, {"sequence": "CAGTACACGTGTCGGG", "relative binding free energy": 0.18}, {"sequence": "GGATCCACGTGTAAGG", "relative binding free energy": 0.18}, {"sequence": "TTGTTCACGTGCGTGT", "relative binding free energy": 0.25}, {"sequence": "ATGGTCACGTGCGCTT", "relative binding free energy": 0.09}, {"sequence": "TGATGCACGTGCTTTC", "relative binding free energy": 0.19}, {"sequence": "TTTATCACGTGAAGAG", "relative binding free energy": 0.38}, {"sequence": "TTCATCACGTGTGTTT", "relative binding free energy": 0.37}, {"sequence": "AGGTACACGTGGAAAA", "relative binding free energy": 0.33}, {"sequence": "GAGATCACGTGAAGTG", "relative binding free energy": 0.27}, {"sequence": "TTTTTCACGTGGCAAA", "relative binding free energy": 0.25}, {"sequence": "ATATACACGTGTGAGG", "relative binding free energy": 0.06}, {"sequence": "GGATGCACGTGTGCCG", "relative binding free energy": 0.04}, {"sequence": "ATGCGCACGTGGGGAA", "relative binding free energy": -0.28}, {"sequence": "ATTTCCACGTGTGTTT", "relative binding free energy": 0.03}, {"sequence": "TGAATCACGTGTGTTT", "relative binding free energy": 0.21}, {"sequence": "GTGTGCACGTGGCGTC", "relative binding free energy": -0.07}, {"sequence": "TTCTTCACGTGGCGGT", "relative binding free energy": 0.15}, {"sequence": "TTGTCCACGTGGTGTT", "relative binding free energy": -0.02}, {"sequence": "TCGCGCACGTGTGGAG", "relative binding free energy": -0.05}, {"sequence": "TTGCCCACGTGGTATG", "relative binding free energy": -0.12}, {"sequence": "AGGGTCACGTGGAGAT", "relative binding free energy": 0.07}, {"sequence": "ATAGTCACGTGTCTAG", "relative binding free energy": 0.17}, {"sequence": "GATTCCACGTGTGTTA", "relative binding free energy": 0.22}, {"sequence": "ATAGGCACGTGGAGGT", "relative binding free energy": -0.09}, {"sequence": "TTTGGCACGTGGTTTA", "relative binding free energy": -0.19}, {"sequence": "GATATCACGTGTTTGA", "relative binding free energy": 0.14}, {"sequence": "TAAATCACGTGGTGGC", "relative binding free energy": 0.18}, {"sequence": "AGTTGCACGTGGTTTT", "relative binding free energy": -0.06}, {"sequence": "CGGGTCACGTGTACAG", "relative binding free energy": 0.23}, {"sequence": "GTTTTCACGTGCTGTA", "relative binding free energy": 0.2}, {"sequence": "TGGTTCACGTGACGTT", "relative binding free energy": 0.32}, {"sequence": "AAGTGCACGTGTGATG", "relative binding free energy": 0.16}, {"sequence": "TTAACCACGTGTGTAG", "relative binding free energy": 0.01}, {"sequence": "TCTAGCACGTGGGATT", "relative binding free energy": -0.19}, {"sequence": "AGGGACACGTGAGCAG", "relative binding free energy": 0.25}, {"sequence": "AGTAGCACGTGTCTAG", "relative binding free energy": -0.08}, {"sequence": "GGGGTCACGTGCGGAC", "relative binding free energy": 0.12}, {"sequence": "GCGACCACGTGTGGGG", "relative binding free energy": 0.05}, {"sequence": "TAGGGCACGTGGGCAT", "relative binding free energy": -0.15}, {"sequence": "GGAATCACGTGGAGGG", "relative binding free energy": 0.14}, {"sequence": "GGAGACACGTGTGGCT", "relative binding free energy": 0.17}, {"sequence": "GTGGTCACGTGTACGT", "relative binding free energy": 0.29}, {"sequence": "CGGGGCACGTGGTCTG", "relative binding free energy": -0.36}, {"sequence": "TTACGCACGTGGGTAT", "relative binding free energy": -0.31}, {"sequence": "GATTGCACGTGAGTGG", "relative binding free energy": 0.28}, {"sequence": "AGCCGCACGTGTGGTG", "relative binding free energy": 0.02}, {"sequence": "ATCTGCACGTGGAAAG", "relative binding free energy": 0.29}, {"sequence": "GGAAGCACGTGGAGCG", "relative binding free energy": -0.22}, {"sequence": "GGGTTCACGTGTTGCT", "relative binding free energy": 0.31}, {"sequence": "TATTCCACGTGTTAGG", "relative binding free energy": 0.03}, {"sequence": "TATGCCACGTGGTGGT", "relative binding free energy": -0.23}, {"sequence": "ACTAGCACGTGATGTT", "relative binding free energy": -0.01}, {"sequence": "TAGGGCACGTGCGTAG", "relative binding free energy": -0.19}, {"sequence": "GGCGCCACGTGGGGGA", "relative binding free energy": -0.25}, {"sequence": "CGAGGCACGTGGAGGT", "relative binding free energy": -0.08}, {"sequence": "TCATACACGTGGGGTT", "relative binding free energy": -0.11}, {"sequence": "TTAATCACGTGGATAA", "relative binding free energy": 0.19}, {"sequence": "CTTTACACGTGGGAGG", "relative binding free energy": -0.1}, {"sequence": "TCATTCACGTGATGTT", "relative binding free energy": 0.18}, {"sequence": "CTGGACACGTGTTAGG", "relative binding free energy": 0.12}, {"sequence": "CGGTTCACGTGATGAG", "relative binding free energy": 0.24}, {"sequence": "TTTTTCACGTGGAGCA", "relative binding free energy": 0.14}, {"sequence": "TTATGCACGTGTTATT", "relative binding free energy": 0.05}, {"sequence": "GCGTTCACGTGATGGC", "relative binding free energy": 0.46}, {"sequence": "AATTTCACGTGATGAA", "relative binding free energy": 0.34}, {"sequence": "TTGGTCACGTGGAATT", "relative binding free energy": 0.23}, {"sequence": "GCTGGCACGTGCGTAG", "relative binding free energy": 0.04}, {"sequence": "GGCGGCACGTGGTCTT", "relative binding free energy": -0.07}, {"sequence": "TGTATCACGTGGGTAT", "relative binding free energy": -0.04}, {"sequence": "CGGGACACGTGCGGGG", "relative binding free energy": -0.23}, {"sequence": "GAGCGCACGTGGGGTA", "relative binding free energy": -0.13}]}]}
